Source: article PMC4336329 (PLoS ONE, 2015)
Among all 310,000 compounds or so, about 2,200 (0.71%) showed an effect of 50% or more. The effect is printed as a negative number. Some of the results follow.

Target: human ether-à-go-go-related gene (hERG) potassium channel (human, UniProt Q12809)
Assay: primary screen, population patch clamp on CHO cells stably expressing hERG

Sequence of human ether-à-go-go-related gene (hERG) potassium channel (Q12809 whole entry, looked up): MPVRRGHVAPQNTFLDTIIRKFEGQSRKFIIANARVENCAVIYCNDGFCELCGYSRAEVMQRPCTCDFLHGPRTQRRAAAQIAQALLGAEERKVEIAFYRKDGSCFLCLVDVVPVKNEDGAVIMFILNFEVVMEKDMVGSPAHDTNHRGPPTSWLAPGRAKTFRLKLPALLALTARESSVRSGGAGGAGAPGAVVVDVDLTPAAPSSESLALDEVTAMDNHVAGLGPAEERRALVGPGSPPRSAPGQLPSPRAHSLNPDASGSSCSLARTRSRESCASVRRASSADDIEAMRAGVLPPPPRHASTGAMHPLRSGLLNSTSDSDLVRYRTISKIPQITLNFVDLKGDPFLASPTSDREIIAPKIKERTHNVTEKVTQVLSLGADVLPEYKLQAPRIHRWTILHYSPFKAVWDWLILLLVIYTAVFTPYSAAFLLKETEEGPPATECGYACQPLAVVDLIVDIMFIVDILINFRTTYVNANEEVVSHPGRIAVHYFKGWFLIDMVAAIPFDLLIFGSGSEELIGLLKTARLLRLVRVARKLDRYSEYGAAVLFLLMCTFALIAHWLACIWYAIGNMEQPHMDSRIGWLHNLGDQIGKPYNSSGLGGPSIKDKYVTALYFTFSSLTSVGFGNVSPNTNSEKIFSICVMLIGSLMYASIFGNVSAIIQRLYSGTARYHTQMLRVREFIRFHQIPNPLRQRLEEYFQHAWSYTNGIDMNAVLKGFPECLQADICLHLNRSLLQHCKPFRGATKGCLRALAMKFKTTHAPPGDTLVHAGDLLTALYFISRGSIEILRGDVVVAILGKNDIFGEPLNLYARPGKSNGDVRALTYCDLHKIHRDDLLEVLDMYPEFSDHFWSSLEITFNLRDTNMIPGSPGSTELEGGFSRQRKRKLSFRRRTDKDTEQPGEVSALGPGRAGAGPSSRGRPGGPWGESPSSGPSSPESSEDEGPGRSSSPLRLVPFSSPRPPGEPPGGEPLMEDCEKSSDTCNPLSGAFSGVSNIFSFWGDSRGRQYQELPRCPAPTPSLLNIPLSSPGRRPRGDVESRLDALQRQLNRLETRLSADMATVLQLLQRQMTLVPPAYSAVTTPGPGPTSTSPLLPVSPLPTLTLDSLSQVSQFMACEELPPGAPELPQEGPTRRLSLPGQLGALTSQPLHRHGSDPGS

Structure (SMILES) | hERG current change (%, negative = inhibition) at 1uM [%]
CCOC(=O)N1CCN(C(=O)c2ccccc2SCC(=O)NCC2CCCCC2)CC1 | -4.41
O=C(CCc1nnc(-c2ccc(-c3ccccc3)cc2)o1)N1CCCCC1 | 7.16
Cc1ccc(NC(=O)/C(=C\c2cccnc2)NC(=O)c2ccccc2)cc1 | -9.99
O=C(/C=C/c1ccccc1)Nc1cccnc1Oc1ccccc1F | 10.7
Cc1nc(CN(C)C(=O)c2cc(COc3c(F)cccc3F)on2)cs1 | 11.9
O=C(C1CCN(S(=O)(=O)N2CCOCC2)CC1)N1CCOCC1 | -8.59
Cc1cnn(-c2cc(Oc3ccccc3)ncn2)c1 | 5.29
COCCCNC(=S)NC(=O)c1ccc([N+](=O)[O-])cc1 | 2.5
CCc1cc(=O)oc2cc(OC(=O)c3ccco3)ccc12 | 10.4
COc1cccc(N2CCN(S(=O)(=O)c3ccc4nc(-c5ccccc5)[nH]c4c3)CC2)c1 | 12.9
CCC(=O)Nc1ccccc1C(=O)OCC(=O)Nc1ccc(S(N)(=O)=O)cc1 | -2.67
CCN1/C(=C/C=C/C=C/C=C/c2sc3ccccc3[n+]2CC)Sc2ccccc21.[I-] | 7.57
CC(CNC(=O)CCn1c(=O)c2cccn2c2ccc(F)cc21)c1ccccc1 (stereo not drawn) | 8.2
COc1ccc(N2C(=O)CC(SCCc3nc4ccccc4[nH]3)C2=O)cc1 (stereo not drawn) | -3.9
CN(C(=O)COC(=O)C1CCN(S(=O)(=O)c2c(Cl)cccc2Cl)CC1)C1CCCCC1 | 6.26
Cc1c(NC(=O)CSc2nc3ccccc3s2)c(=O)n(-c2ccccc2)n1C | 3.26
Cn1cc(/C=C2\C(=O)NC(=O)N(c3ccccc3)C2=O)c2ccccc21 | 6.76
CC(C)NC(=O)c1[nH]nc2c1CCc1ccccc1-2 | 17.5
Cc1ccc(-n2nc3c(=O)n(C(C)C(=O)NCCCc4ccccc4)nc(C)c3c2C)cc1 (stereo not drawn) | 4.85
Cc1ccc(F)cc1NC(=O)c1ccc(NS(=O)(=O)c2ccc(Br)s2)cc1 | -20
CCOC(=O)c1ccccc1NC(=O)c1cccc(F)c1 | 3.18

Structure (SMILES) | hERG current change (%, negative = inhibition) at 1uM [%]
Cc1nn(C)c(C)c1NC(=O)COc1ccc(Cl)cc1 | 5.1
O=C(CCc1nnc(CCc2ccccc2)o1)N1CCCCC1CCn1cccn1 (stereo not drawn) | 8.15
Cc1ccc(C(=O)N2N=C(c3ccc(NS(C)(=O)=O)cc3)CC2c2cccs2)cc1 (stereo not drawn) | 8.06
CCOC(=O)N1CCN(C(=O)c2cn(CC)c3ccc(S(=O)(=O)N4CCOCC4)cc3c2=O)CC1 | 15.2
CCCN(C(=O)/C=C/c1nc2ccccc2s1)C1CCS(=O)(=O)C1 (stereo not drawn) | 6.48
Cc1cc(C)cc(NC(=O)C(OC(=O)c2sccc2C)c2ccccc2)c1 (stereo not drawn) | 18.3
CCOC(=O)c1c(-c2cccc([N+](=O)[O-])c2)csc1N | 9.15
c1ccc(-c2cc(-c3nnco3)c3ccccc3n2)nc1 | 13.2
COc1ccc(OC)c(-c2csc(NC(=O)Cc3ccccc3)n2)c1 | -4.23
CCCC(O)(CCN1CCOCC1)c1ccc(Cl)cc1 (stereo not drawn) | 6.26
Cc1ccc(C(=O)O)cc1-n1c(C)cc(C=O)c1C | 7.68
O=c1c2c([nH]c3ccccc13)CCCCC2 | 7
Nc1cccc(-c2csc(-n3ncc(C(=O)O)c3C(F)(F)F)n2)c1 | 9.69
O=C(NCCc1ccccc1F)C1CCC(=O)N(Cc2ccccc2F)C1 (stereo not drawn) | 16
CCN(C(=O)CSc1nnc2ccccn12)c1c(N)n(Cc2ccccc2)c(=O)[nH]c1=O | 14.6
CCn1nc(C(=O)OC(C(=O)c2c[nH]c3ccccc23)c2ccccc2)c2ccccc2c1=O (stereo not drawn) | 2.31
O=C(Nc1nnc(SCc2c(Cl)cccc2Cl)s1)C1CCCO1 (stereo not drawn) | -0.221
Br.N=C(N)SCc1nc2ccccc2c(=O)n1-c1ccccc1 | 8.84
O=C(Cn1nnc2ccccc2c1=O)NCCc1ccc(F)cc1 | 9.54
CCOC(=O)c1cnn2cc(-c3[nH]ncc3[N+](=O)[O-])cnc12 | 5.82
COc1ccc(-n2c(C)c(C(=O)O)c3cc(OC)c4ccccc4c32)cc1 | 8.49
